Results taken from the supplement of paper PMC3334620.
In all, about 33,000 sequences were measured (“E-score (-0.5 to 0.5)”: median about -0.056, highest 2% from about 0.38 on). Some of the results follow.

Target: Stb4 (UniProt P50104)
Test: PBM E-score (8-mer binding enrichment) (E-score (-0.5 to 0.5)); higher = stronger / more preferred TF binding; most listed sequences are background and not binding sites
Conditions: protein concentration: 200 nM; construct: GST-DNA-binding domain
In short: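 E-scores (a modified Wilcoxon-Mann-Whitney statistic) were assigned by the Universal PBM Analysis Suite to every ungapped eight-base word pooled with its reverse complement. The input came from universal all-10-mer Agilent arrays made double-stranded by primer extension and probed with GST-tagged yeast transcription factors at about 100-200 nM. Fluorescent anti-GST detected bound protein, and masliner normalised the scans.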

Row | Sequence | PBM E-score
1 | AAATCTCC | -0.0269
2 | CAGAAAAG | -0.108
3 | CAGATAGG | -0.191
4 | AGCGATAC | -0.116
5 | AACTGTTC | 0.0591
6 | ACGCGCAG | -0.305
7 | GAAATCGC | 0.0354
8 | CCCCCTAG | -0.264
9 | ACTCATCT | -0.224
10 | GATACCCC | 0.0107
11 | CTGGAGAA | -0.238
12 | CAATTCGG | 0.366
13 | AATCCAGC | -0.0895
14 | CCACACTA | 0.0411
15 | CCTATGTC | -0.102
16 | AGCCCCAA | -0.307
17 | CACATCGA | -0.223
18 | CAAAGTTG | -0.272
19 | AAGAACAT | 0.0606
20 | GTCCGAGA | 0.378
21 | ATATTCGC | -0.034
22 | AAGGGGAT | -0.091

Row | Sequence | PBM E-score
23 | AACTCACT | -0.214
24 | CGGCTAGC | 0.28
25 | TCCCCGCA | 0.205
26 | CATTGGCA | -0.138
27 | AGTCTTGG | -0.124
28 | GGCCAAAC | 0.0582
29 | AAGAGGCG | -0.131
30 | AAGCACTT | 0.00958
31 | AGAGCCAC | -0.148
32 | CTGTAGGA | -0.0819
33 | CGTGACCA | -0.155
34 | GCCTAGCC | -0.0218
35 | AGCTCATA | -0.0221
36 | AGGGAGCA | -0.166
37 | TTCGTAAA | -0.229
38 | AGCATTGA | -0.164
39 | ACACAACT | -0.21
40 | AATAGTCG | -0.0847
41 | GCGAGCCC | -0.0138
42 | CCTAGATA | -0.284
43 | CGGTAACA | 0.238
44 | GCCCGTGA | -0.0199

Row | Sequence | PBM E-score
45 | AAGGTATT | 0.0562
46 | CCCATGAC | -0.113
47 | CAATAGTC | -0.159
48 | ACCGGATA | 0.388
49 | AAAACGTT | -0.0148
50 | CCTCAAGC | -0.186
51 | GTGGACTA | -0.0353
52 | GGCAGGCA | 0.0342
53 | CAAATAAA | -0.0731
54 | GTGCGGGA | 0.218
55 | ACGCGCCT | -0.199
56 | AAGCGGTG | -0.196
57 | AGTGCGCG | -0.0739
58 | GTGATCAA | -0.212
59 | ATGTTACC | 0.224
60 | CTAATGAG | -0.094
61 | CCGCACGA | 0.086
62 | ATAGCACG | -0.208
63 | TAATCCGA | 0.39
64 | CTTAAAAG | -0.201
65 | CGAGATAG | 0.00411
66 | ACAAGGAG | -0.162

Row | Sequence | PBM E-score
67 | ATTCGCAG | -0.152
68 | AAGTTAGA | -0.00247
69 | ACAAGATG | -0.25
70 | AACGGCTG | 0.0915
71 | AAATTGGC | -0.0523
72 | CCATACAC | 0.133
73 | AAGCCACG | -0.0557
74 | AGCGCGAG | -0.212
75 | TCGAAGAA | -0.122
76 | ACAGAAAT | -0.0747
77 | ACCTGTAA | -0.252
78 | CCCAGTAA | -0.0957
79 | GCGTTAAC | -0.0445
80 | CTTTATGC | -0.0596
81 | TTGTAAAA | 0.0584
82 | ACATCGAG | -0.305
83 | ACTATCTG | -0.106
84 | AAGTGCAT | -0.21
85 | CCCTCCAA | -0.198
86 | AGGCTCAT | -0.121
